Experimental data reported in PubChem BioAssay AID1347073 (National Center for Advancing Translational Sciences (NCATS), 2019).
The campaign covered roughly 45,000 compounds. About 200 (0.44%) were called active. About 7% were inconclusive and are not listed. Calls come from the whole dose curve; as a rule, active = well fitted activation curve with a large enough effect; inconclusive = small, poorly fitted or top-dose-only effect; inactive = no such curve, though single readings can be large or run the other way. This is one part of the list.

test: qHTS of TDP-43 Inhibitors: NCGC Sytravon Library Screen; settings: yeast TDP-43 toxicity rescue, BacTiter-Glo growth, 24 h; series mostly up to 46.1 µM; growth rescue (activation): at the top concentration; note: 0% is about no effect; nearly all actives have a fitted effect of over 55% in size
Method in brief: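 TDP-43-expressing yeast, pregrown in raffinose, seeded at OD600 0.02 in galactose medium with compound for 24 hr at 30 deg C. Growth read by BacTiter-Glo luminescence, so rescue of toxicity appears as activation.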

Row | Structure (SMILES) | growth rescue (activation)
1 | CC1(C(=O)O)CCC(C(=O)Nc2cccc(F)c2)C1(C)C (stereo unspecified) | inactive: -10.7%
2 | O=S1(=O)N=C(N(CCO)/N=C/C=C/c2ccccc2)c2ccccc21 | inactive: -26.1%
3 | CC(=O)c1ccc(NC(=O)C(C)Nc2ccc(Cl)cc2)cc1 (stereo unspecified) | inactive: 27.6%
4 | Cc1ccnc(NC(=S)N2CCN(c3cccc(C(F)(F)F)c3)CC2)c1 | inactive: 24.3%
5 | COc1ccccc1N1CCN(/N=C/c2ccc(O)c(O)c2)CC1 | inactive: 10.7%
6 | COc1ccc2nc(NC(=O)c3ccc(NS(=O)(=O)c4cccs4)cc3)sc2c1 | inactive: 4.39%
7 | Cc1ccc(/C=C2/NC(=O)N(Cc3ccccc3F)C2=O)o1 | inactive: -2.17%
8 | Cc1ccc(S(=O)(=O)N2CCOCC2)cc1C(=O)OC1CCCCC1=O (stereo unspecified) | inactive: 10.6%
9 | COC(=O)C(C)(C)ONC(=O)Nc1ccccc1Cl | inactive: 7.17%
10 | O=C(Cc1c(C(=O)O)[nH]c2ccccc12)NC1CCCC1 | inactive: -5.7%
11 | COc1ccc(-c2cc(C3CC3)nc(N)c2C#N)cc1 | inactive: 4.03%
12 | O=C(COC(=O)c1ccc(Br)cc1)Nc1ccccc1Br | inactive: 6.05%
13 | Cc1csc(CN(C)C(=O)CC2C(=O)NCCN2CC(C)(C)C)n1 (stereo unspecified) | inactive: 2.51%
14 | Cc1nc(C(=O)N2CCC(C)(C(=O)NS(=O)(=O)C3CC3)C2)c(C)o1 (stereo unspecified) | inactive: 9.93%
15 | COC(=O)c1ccc(CNC(=O)c2coc3ccccc3c2=O)cc1 | inactive: -6.42%
16 | COc1ccc(-c2cnc3c(NC(C)=O)cc(-c4cccc(C(=O)NCCO)c4)cn23)cc1OC | inactive: -3.22%
17 | CC(NC(=O)c1cccc(S(=O)(=O)N(C)C)c1)C1CC2CCC1C2 (stereo unspecified) | inactive: -8.18%
18 | COC(=O)CCN(C(=O)c1ccc(N2CCCCC2)c([N+](=O)[O-])c1)c1ccccn1 | inactive: 35%
19 | COc1ccc(-c2cc(C(=O)Nc3cccnc3)no2)cc1OC | inactive: 14.9%
20 | Clc1ccc2oc3c(Cl)ncnc3c2c1 | inactive: 19.1%
21 | COc1ccc(C(C(=O)NC2CCCC2)N(CCCO)C(=O)c2snc(C(N)=O)c2N)cc1 (stereo unspecified) | inactive: -28.6%
22 | O=c1[nH]c(CSc2nnnn2-c2ccc(Cl)cc2)nc2ccccc12 | inactive: 7.85%
23 | CCOC(=O)C1CCN(C(=O)COC(=O)c2ccc3c(c2)C(=O)N(c2ccc(OCC)cc2)C3=O)CC1 | inactive: 0.536%

Row | Structure (SMILES) | growth rescue (activation)
24 | CC(CC(=O)Nc1ccc2c(c1)c(=O)n(C)n2Cc1ccc(F)cc1)c1ccccc1 (stereo unspecified) | inactive: 4.98%
25 | O=C(CN1CCCCC1)NNC(=O)c1cccc(Br)c1 | inactive: 5.45%
26 | Cc1cccc(NC(=O)C2CCCN(C(=O)Nc3ccc(F)cc3)C2)c1C (stereo unspecified) | inactive: 7.53%
27 | O=C(COC(=O)c1cc(=O)[nH]c2ccccc12)Nc1ccc(F)cc1F | inactive: -13.4%
28 | O=C(O)c1ccc2c(c1)C(=O)N(CCc1c[nH]c3ccccc13)C2=O | inactive: 0.713%
29 | CCN(CC)C(=O)CSc1nc2c(c(-c3cccnc3)c1C#N)CCCC2 | inactive: 3.03%
30 | COc1cccc(CNC(=O)COC(=O)c2ccc(Cl)s2)c1 | inactive: -7.07%
31 | CC(C)Oc1cccc(C(=O)NC(=S)NCc2cccnc2)c1 | inactive: 20.2%
32 | CC1(C(=O)Nc2ccc3c(c2)OCO3)CCN1C(=O)CC1CC1 (stereo unspecified) | inactive: 0.0525%
33 | CCc1cccc(NC(=O)c2cc(-c3ccccc3)n[nH]2)c1 | inactive: 23.3%
34 | COc1ccc(NC(=O)CNC(=O)c2ccco2)cc1S(=O)(=O)Nc1cc(C)ccc1Br | inactive: 12.4%
35 | C=C(C)CN1CCN(S(=O)(=O)c2ccc(C)c(N(C)S(=O)(=O)c3ccc(C)cc3)c2C)CC1 | inactive: 1.83%
36 | O=C(Nn1cnnc1)c1ccc(Cl)c([N+](=O)[O-])c1 | inactive: -3.17%
37 | CC(=O)c1cccc(NC(=O)C(C)OC(=O)CCc2nc3ccccc3c(=O)[nH]2)c1 (stereo unspecified) | inactive: 0.294%
38 | CCOC(=O)Cc1cnc(NC(=O)CSc2nc(C(C)C)cc(=O)[nH]2)s1 | inactive: -9.04%
39 | COC(=O)C1=C(C)N(C2CCCCC2)C(=O)/C1=C\c1cccs1 | inactive: 7.55%
40 | CCCNc1nc2nc3ccccn3c(=O)c2cc1C(=O)NCCN1CCOCC1 | inactive: -6.99%
41 | Cc1ccccc1Nc1c([N+](=O)[O-])ccc2nonc12 | inactive: -12.2%
42 | Cc1nn2c(N3CCN(C)CC3)cc(C(C)(C)C)nc2c1-c1ccccc1 | inactive: 1.97%
43 | CC1CCCN(C(=O)C2CC(=O)N(c3ccc(Cl)cc3)C2)C1 (stereo unspecified) | inactive: 7.71%
44 | COC(=O)c1sc(NC(=O)C2c3ccccc3Oc3ccccc32)c(C(=O)OC)c1C | inactive: 1.7%
45 | O=C(CSc1nncn1-c1ccccc1)c1c[nH]c2ccccc12 | inactive: 6.17%
46 | COc1ccc(NC(=S)N2CCN(C(=O)C3CCCO3)CC2)cc1 (stereo unspecified) | inactive: 15.6%

Row | Structure (SMILES) | growth rescue (activation)
47 | CC(=O)Nc1ccc2c(CSc3nncs3)cc(=O)oc2c1 | inactive: 15.8%
48 | O=C(CCCC(=O)c1ccccc1)NCCc1ccccc1 | inactive: -5.86%
49 | CC1(C)CC(NC(=O)c2ccc(Br)o2)CC(C)(C)N1 | inactive: -13.4%
50 | O=C(/C=C/c1ccccc1)NCc1cccnc1 | inactive: -6.15%
51 | CC(C)Oc1snc(Cl)c1C(N)=O | inactive: -3.88%
52 | CCOC(=O)c1c(-c2ccccc2)cn2c(C)cc(C)nc12 | inactive: 10%
53 | CC(C)(C)c1cc(P(=O)(c2ccccc2)c2ccccc2)ccc1O | inactive: -0.751%
54 | O=C(CCN1CCCC1)Nc1cccc(Br)c1 | inactive: -28.9%
55 | COc1ccc(C(=O)CC(=O)C(=O)Nc2cccc(C(C)=O)c2)cc1 | inactive: -11.1%
56 | Cc1cc(C)nc(SCC(=O)NN=C2CCCC2)n1 | inactive: -1.65%
57 | Nc1nc(-c2ccccn2)nc(N)c1Cc1ccccc1F | inactive: 4.2%
58 | CC(C)Oc1cc(S(=O)(=O)N2CCCCC2)ccc1N | inactive: 4.51%
59 | COc1ccc(CN(C)CC2CCCN(CCc3ccccc3C)C2)cc1O (stereo unspecified) | inactive: 2.85%
60 | Cc1[nH]c(=O)c(C#N)c(C)c1Cc1ccc(Cl)cc1Cl | inactive: -4.5%
61 | O=C(CCSc1ccccc1)NCC1CCCO1 (stereo unspecified) | inactive: 31.7%
62 | CCN(CC)S(=O)(=O)c1ccc(NS(=O)(=O)c2ccc3oc(=O)[nH]c3c2)cc1 | inactive: -3.67%
63 | c1cc(-c2ccc3[nH]ccc3c2)n2ccnc2c1 | inactive: -5.58%
64 | COc1ccc(NC(=O)CN(C)C(=O)c2cnc(Cl)c(Cl)c2)cc1 | inactive: 6.51%
65 | Cc1c(CCC(=O)O)c(=O)oc2cc3occ(-c4ccc(Cl)cc4)c3cc12 | inactive: 11.5%
66 | COc1ccc(S(=O)(=O)N(CC(=O)NCC2CCCO2)C2CCCCC2)cc1OC (stereo unspecified) | inactive: -4.11%
67 | COc1ccc(C(=O)NC(=S)Nc2ccc3[nH]c(=O)[nH]c3c2)cc1 | inactive: 7.72%
68 | C=CCNC(=O)[C@H]1N2C(=O)c3ccccc3C2SC1(C)C (stereo partly specified) | inactive: 3.14%
69 | O=C(NC1CCN(Cc2ccccc2)CC1)c1cccc(OC(F)F)c1 | inactive: 6.76%

Row | Structure (SMILES) | growth rescue (activation)
70 | CCc1ccc(NC(=S)N2CCNC(=O)C2CC(=O)OC)cc1 (stereo unspecified) | inactive: 4.5%
71 | CCCCCCCCCCCCCCCC[n+]1cccc2ccccc21 | inactive: -81.6%
72 | Cc1ccc(S(=O)(=O)N(C)C)cc1N | inactive: 8.74%
73 | COc1cc(C)c(Cl)cc1S(=O)(=O)N1CCCC1 | inactive: 3.86%
74 | CC1N(C)c2cc(NC(=O)c3cccs3)c(P(=O)(Nc3ccc([N+](=O)[O-])cc3)N3CCOCC3)cc2C1(C)C (stereo unspecified) | inactive: -0.686%
75 | Cc1c([N+](=O)[O-])c([N+](=O)[O-])nn1CC(=O)N1CCOCC1 | inactive: -1.62%
76 | O=C(Nc1nnc([C@H]2C[C@H](O)[C@@H](CO)O2)s1)Nc1ccccc1C(F)(F)F | inactive: 6.11%
77 | COc1ccc(N(C(=O)c2ccco2)C(C(=O)NC2CCCC2)c2ccc(OC)c(OC)c2)cc1 (stereo unspecified) | inactive: 10.8%
78 | CCn1c2ccccc2c2cc(CN3CCN(Cc4ccc(OC)c(OC)c4)CC3)ccc21 | inactive: 8.76%
79 | COc1ccc(NS(=O)(=O)c2ccc3oc(SCc4ccc(F)cc4)nc3c2)cc1 | inactive: -16.1%
80 | CCOC(=O)N1N=C(c2ccccc2)CC1(O)C(C)(F)F (stereo unspecified) | inactive: -3.44%
81 | Cc1ccc(OCC(=O)NCCNC(=O)c2ccncc2)cc1C | inactive: 6.4%
82 | CCN(CC)C(=S)NCCc1ccccc1 | inactive: -6.13%
83 | O=c1ccc(=O)n2n1CC(O)C2 | inactive: -5.99%
84 | Cc1ccc(C)c(OCCSc2nnc(-c3cccnc3)n2N)c1 | inactive: 7.38%
85 | O=C(NCc1cccc(C(F)(F)F)c1)c1ccc2sc([C@@H]3O[C@H](CO)[C@H](O)[C@H](O)[C@H]3O)nc2c1 | inactive: 19.1%
86 | CC1(C)C2CCC1(CS(=O)(=O)Nc1ccccc1)C(=O)C2 (stereo unspecified) | inactive: -2.28%
87 | Cc1cc(Cl)cc(Br)c1OCCCNCC(C)O (stereo unspecified) | inactive: -2.03%
88 | C[N+]1(CCOc2ccc([N+](=O)[O-])cc2)CCOCC1 | inactive: -14.9%
89 | CC(Oc1ccc(F)cc1Br)c1nc2ccccc2c(=O)[nH]1 (stereo unspecified) | inactive: 23.1%
90 | CNc1cncc(-c2ccc(CN3CCOCC3)cc2)n1 | inactive: -5.46%
91 | Cc1nn(-c2ccccn2)c(N)c1N=O | inactive: 22.7%
92 | CN(C)c1ccc(N=Nc2ccccc2C(=O)OCC(=O)N(C)C2CCCCC2)cc1 | inactive: -0.427%

Row | Structure (SMILES) | growth rescue (activation)
93 | O=C(CCc1nnc(Cc2ccc(-c3ccccc3)cc2)o1)N1CCCC1 | inactive: 20.2%
94 | CNC(=O)C(NC(=O)c1ccccc1)=C(C)C | inactive: 0.416%
95 | CC1Cc2ccccc2N1C(=O)CN1CCCCC1 (stereo unspecified) | inactive: 6.92%
96 | CC(C)(C)CC(=O)Nc1nnc(SCC(=O)NC2CCCC2)s1 | inactive: 9.83%
97 | COC(=O)COc1ccc2c(=O)c(-c3ccccc3OC)coc2c1 | inactive: -9.2%
98 | Cc1cc(Br)ccc1NC(=O)CSc1nnc(CN2CCOCC2)n1C | inactive: -5.58%
99 | O=C(NC(=S)NCc1cccnc1)c1ccccc1F | inactive: -9.73%
100 | COc1ccc(NC(=O)CCNC(=O)c2ccco2)cc1Cl | inactive: 2.83%
101 | Cc1ccccc1NC(=O)COC(=O)/C=C/c1cccc(C(F)(F)F)c1 | inactive: 9.12%
102 | COc1ccc(C(=O)N2CCCC(c3cc(C(=O)NCc4ccccc4)no3)C2)cc1 (stereo unspecified) | inactive: 12.4%
103 | Cc1cnc(C(=O)N(CC(C)C)c2c(N)n(CC(C)C)c(=O)[nH]c2=O)cn1 | inactive: 6.33%
104 | C/C(=N\NC(=O)CNc1cccc2ccccc12)c1ccc(Br)s1 | inactive: 10.8%
105 | CCN1CCN(c2c(Cl)cccc2NC(=O)c2ccc([N+](=O)[O-])cc2)CC1 | inactive: 8.28%
106 | O=C1CCN(S(=O)(=O)c2ccccc2)N1 | inactive: 7.7%
107 | Cc1cc(C)cc(NC(=O)CCCSc2nc3ccccc3[nH]2)c1 | inactive: -9.01%
108 | O=C(CSc1nc2ncc(Cl)cc2[nH]1)c1c[nH]c2ccccc12 | inactive: 20.2%
109 | O=C(/C=C/c1ccccc1)NCCSCc1ccccc1 | inactive: 25.9%
110 | O=C(/C=C/c1cccc(F)c1)N1CCN(c2ncccn2)CC1 | inactive: 28.8%
111 | O=[N+]([O-])c1ccc(/C=C/c2ccc3cccc([N+](=O)[O-])c3n2)cc1 | inactive: 7.71%
